In PubChem BioAssay AID504648 (National Center for Advancing Translational Sciences (NCATS), 2011):
Hit rate of the full screen: of about 390,000 compounds, about 610 (0.16%) were called active. Inconclusive results (about 4%) are left out. Calls come from the whole dose curve; as a rule, active = well fitted inhibition curve with a large enough effect; inconclusive = small, poorly fitted or top-dose-only effect, or effect the other way, or another doubt; inactive = no such curve, though single readings can be large or run the other way. The entries are a selection whose mix differs from that of the whole data set.

Experiment: Nrf2 qHTS screen for inhibitors: counterscreen for cytotoxicity
Settings: A549 ARE-Fluc cells, CellTiter-Fluor viability, 18-24 h; series mostly up to 46 µM; activity change, negative = cytotoxicity: at the top concentration
Outline: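 A549 ARE_Fluc cells in 5% FBS OPTI-MEM were exposed to compounds in concentration-response for 18-24 h at 37 deg C. Viability was read by CellTiter-Fluor fluorescence (Ex 405/Em 525) after 30 min, before the luciferase read.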
% is set by controls: 0 for no effect and ±100 for the full control effect; potency is the fitted concentration of half-maximal effect.

Compound | Potency | activity change, negative = cytotoxicity
O=C(CCl)Nc1cc2[nH]c(=O)[nH]c2cc1Br | active: 23.1 µM | –
O=C(C[C@H]1C/C=C\CC[C@@H](Cc2ccc(F)cc2)C(=O)O[C@H](c2ccccc2)CNC1=O)N[C@H](CO)Cc1ccccc1 | – | inactive: 3.44%
CCCCCCCCCCCCCCCCn1cc[n+](C)c1 | – | inactive: -13.2%
C/C(=N/Nc1ccc(C(=O)c2c(C)cc3ccccn23)cc1[N+](=O)[O-])c1ccc(O)cc1 | – | inactive: 5.55%
C/C(Sc1nnc(Cc2ccccc2)o1)=C(/O)c1ccccc1 | – | inactive: -2.47%
CC(C)(C)OC(=O)C[C@H]1C/C=C\C[C@@H](CC(=O)N(CCO)Cc2ccccc2)C(=O)NC[C@@H](c2ccccc2)OC1=O | – | inactive: -8.73%
CN(C)CCCNc1c2c(nc3ccccc13)CCC2 | active: 13 µM | –
O=C(Nc1ccccc1C(=O)Nc1nnc(C(F)(F)F)s1)c1ccccc1 | active: 13 µM | –
Cc1cc(C)c2oc(C(=O)N(Cc3ccc(F)cc3)C3CCS(=O)(=O)C3)cc(=O)c2c1 (stereo unspecified) | – | inactive: -14.3%
C[C@]12C(=O)N(c3ccc(C(F)(F)F)cc3)C(=O)N1[C@@H]1c3ccccc3OC[C@@H]1[C@H]2c1ccccc1 | – | inactive: 3.82%
CC(=O)N1CCc2c(sc(NC(=O)c3ccc([N+](=O)[O-])o3)c2C#N)C1 | active: 20.6 µM | –
O=C(C[C@@H]1C/C=C/CC[C@@H](Cc2ccc(F)cc2)C(=O)OC[C@H](Cc2ccccc2)NC1=O)N[C@H](CO)Cc1ccccc1 | – | inactive: -7.11%
CCN(c1ccc(OC)cc1)S(=O)(=O)c1nnc(NC(=O)c2ccccc2Cl)s1 | – | inactive: -15.7%
O=Nc1c(-c2c(O)[nH]c3cc(Br)ccc23)[nH]c2ccccc12 | active: 20.6 µM | –
O=C(CCN1C(=O)/C(=C\c2ccccc2)SC1=S)NCCCN1CCOCC1 | – | inactive: -0.597%
CCN(CC)CCOc1ccc(/C(=C(\Cl)c2ccccc2)c2ccccc2)cc1 | – | inactive: -22.5%
Cn1cccc1/C=C(\C#N)C(N)=S | – | inactive: -6.47%
CCOc1ccc(Nc2oc(-c3ccc(Cl)cc3)nc2C#N)cc1 | active: 20.6 µM | –
NS(=O)(=O)c1ccc(N/N=C/c2cn(-c3ccccc3)nc2-c2cccs2)c([N+](=O)[O-])c1 | active: 13 µM | –
C=CC[C@@H](CC(=O)N[C@@H](CO)Cc1ccccc1)C(=O)N[C@H](COC(=O)[C@@H](CC=C)Cc1ccc(F)cc1)C(C)(C)C | – | inactive: -24.9%
C=CCC[C@@H](Cc1ccc(F)cc1)C(=O)OC[C@H](C)NC(=O)[C@@H](CC=C)CC(=O)N[C@@H](CO)Cc1ccccc1 | – | inactive: 0.56%
O=C1/C(=C/c2cccnc2)SC(=S)N1C1CCS(=O)(=O)C1 (stereo unspecified) | – | inactive: -15.1%

Compound | Potency | activity change, negative = cytotoxicity
COc1ccc(NC(=O)CCNS(=O)(=O)c2cccc3nsnc23)cc1OC | – | inactive: 4.24%
C=CCC[C@@H](Cc1ccc(F)cc1)C(=O)OC[C@@H](C)NC(=O)[C@@H](CC=C)CC(=O)N[C@H](CO)Cc1ccccc1 | – | inactive: -10.5%
CC(C)(C)OC(=O)C[C@@H]1C/C=C\C[C@H](CC(=O)N(CCO)Cc2ccccc2)C(=O)NC[C@@H](c2ccccc2)OC1=O | – | inactive: -7.95%
CCCCNC(=O)COC(=O)c1c2c(nc3ccccc13)/C(=C/c1cccs1)CC2 | – | inactive: -1.39%
O=C(N/N=C/c1ccc([N+](=O)[O-])o1)c1ccc(O)cc1 | active: 20.6 µM | –
O=C1NC[C@@H](c2ccccc2)OC(=O)[C@H](Cc2ccc(F)cc2)C/C=C\C[C@H]1CC(=O)N(CCO)Cc1ccccc1 | – | inactive: -14.6%
CC(=O)Nc1c(I)c(NC(C)=O)c(I)c(C(=O)O)c1I | – | inactive: -9.13%
CCc1cc(C(N)=S)ccn1 | – | inactive: -0.595%
O=C(NCc1cccnc1)/C(=C/c1ccc(-c2cccc(Cl)c2)o1)S(=O)(=O)c1ccccc1 | – | inactive: 1.32%
CC(C)n1cc(/C=C2\NC(=O)N(c3cccc(Cl)c3)C2=O)c2ccccc21 | – | inactive: -11%
CCOC(=O)N1CCN(C(=O)c2ccc3c(c2)N(Cc2cc(C)ccc2C)C(=O)c2ccccc2S3=O)CC1 (stereo unspecified) | – | inactive: -13%
C=CC[C@@H](CC(=O)N[C@@H](CO)Cc1ccccc1)C(=O)N[C@@H](C)COC(=O)[C@@H](CC=C)Cc1ccc(F)cc1 | – | inactive: -1.74%
C[C@@]12C(=O)N(c3ccc(C(F)(F)F)cc3)C(=O)N1[C@@H]1c3ccccc3OC[C@@H]1[C@H]2c1ccccc1 | – | inactive: 10%
C=CCC[C@@H](Cc1ccc(F)cc1)C(=O)OC[C@@H](Cc1c[nH]c2ccccc12)NC(=O)[C@@H](CC=C)CC(=O)N[C@@H](CO)Cc1ccccc1 | – | inactive: -6.75%
CCc1nnc(NC(=O)c2ccc(NS(=O)(=O)c3ccccc3)cc2)s1 | – | inactive: 6.43%
C[C@@H](C(=O)N=c1sc2ccccc2n1C)N1C(=O)C2CC=CCC2C1=O (stereo partly specified) | – | inactive: 3.01%
C=CC[C@@H](CC(=O)N(CCO)Cc1ccccc1)C(=O)N[C@H](COC(=O)[C@@H](CC=C)CC(=O)OC(C)(C)C)Cc1ccccc1 | – | inactive: -5.08%
CCCCN(CC)CCCNC(=O)c1cc2c(=O)[nH]c3ccccc3c2s1 | – | inactive: 6.1%
CCOC(=O)/C=c1\s/c(=C\c2ccccc2OC)c(=O)n1CC(=O)N1CCOCC1 | – | inactive: -21.4%
O=C(C[C@H]1C/C=C\CC[C@@H](Cc2ccc(F)cc2)C(=O)O[C@@H](c2ccccc2)CNC1=O)N[C@@H](CO)Cc1ccccc1 | – | inactive: -0.0995%
C=CCC[C@@H](Cc1ccc(F)cc1)C(=O)OC[C@H](C)NC(=O)[C@@H](CC=C)CC(=O)N(CCO)Cc1ccccc1 | – | inactive: -7.22%
CCC1=C(CC2NCCc3ccccc32)CC2c3cc(OC)c(OC)cc3CCN2C1 (stereo unspecified) | active: 7.31 µM | –

Compound | Potency | activity change, negative = cytotoxicity
O=C(CCCN1C(=O)/C(=C/c2ccccc2)SC1=S)Nc1ccc(O)cc1 | – | inactive: -3.96%
O=C(/C=C/c1ccco1)Nc1ccc(-c2nc3ccccc3[nH]2)cc1 | active: 23.1 µM | –
COc1cc(C(=O)NCC(c2cccnc2)N2CCN(c3ccc(F)cc3)CC2)cc(OC)c1OC (stereo unspecified) | – | inactive: 1.81%
Cn1ncc2c(O/N=C(\N)c3ccc(C(C)(C)C)cc3)ncnc21 | active: 16.4 µM | –
CCN1C(=O)/C(=C2/Sc3ccccc3N2CCCS(=O)(=O)O)SC1=S | – | inactive: -19.9%
Cn1c2ccccc2c2cnn(CC(=O)NCCCN3CCN(c4ccccc4F)CC3)c(=O)c21 | – | inactive: 12.8%
CCNC(=O)c1c(NC(=O)c2nc(S(=O)(=O)CC)ncc2Cl)sc2c1CCCC2 | active: 20.6 µM | –
Cc1[nH]nc(N=CC2=C(O)CC(C)(C)CC2=O)c1-c1ccccc1 | – | inactive: -8.94%
COc1ccc(C(CC(=O)N2CCN(c3ccccc3)CC2)c2c(OC)cc(OC)c3ccc(=O)oc23)cc1 (stereo unspecified) | – | inactive: -15.9%
Cc1ccc(N(CC2=NCCN2)c2cccc(O)c2)cc1 | inactive | –
COC(=O)C1=C(C)NC(C)=C([N+](=O)[O-])C1c1ccccc1C(F)(F)F (stereo unspecified) | – | inactive: -18.4%
COc1ccc(C(=O)Nc2ccc3nc(N4CCCCC4)cc(C)c3c2)cc1OC | – | inactive: -21%
CCCCCn1c(=O)[nH]c2cc(C(=O)N3CCN(c4ccccc4F)CC3)ccc2c1=O | – | inactive: -2.3%
CCCN(CCC)CCNC(=O)c1cc2c(-c3ccc(Cl)cc3)nn(C)c2s1 | active: 23.1 µM | –
COc1ccccc1NC(=O)NCCN1CCN(c2cccc(Cl)c2)CC1 | – | inactive: 1.21%
COc1ccc([C@@H]2C[C@@H](c3ccccc3)Oc3cc(OC)c(OC)c(OC)c32)cc1 | – | inactive: 18.6%
CC1CC=CC2C1C(=O)N(Cc1ccccc1)C2c1ccc2ccccc2c1Br (stereo unspecified) | – | inactive: -4.31%
COc1ccc(CC2C(=O)NC(C)C(=O)N(C)C3Cc4ccc(cc4)Oc4cc(ccc4O)CC(C(=O)NC(C)C(=O)NC(C)C(=O)N2C)N(C)C3=O)cc1 (stereo unspecified) | active: 2.31 µM | –
O=C1OC(c2ccccc2)(c2ccccc2)N2CCN(C(=O)NCc3ccc(F)cc3)CC12 (stereo unspecified) | – | inactive: -15.2%
CCCCN(CC)CCNC(=O)c1nn(-c2ccc(OC)cc2)c(=O)c2c1c1ccccc1n2C | – | inactive: -4.65%
Cc1c(C(=O)N(Cc2ccc(N(C)C)cc2)C2CCS(=O)(=O)C2)oc2ccccc12 (stereo unspecified) | – | inactive: -12.8%
COc1ccc(Cl)cc1NC(=O)CN(C)C(=O)CCC(=O)c1cc(C)sc1C | active: 16.4 µM | –
